T1: UNK ZnF1-3 (human, UniProt Q9C0B0 31-174)
T1 sequence: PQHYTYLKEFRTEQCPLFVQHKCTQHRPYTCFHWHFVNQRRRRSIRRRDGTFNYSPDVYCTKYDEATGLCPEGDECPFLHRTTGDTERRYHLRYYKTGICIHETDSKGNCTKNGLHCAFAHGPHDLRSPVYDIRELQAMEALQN

B1: chr3:119450855:119450856:-_ENSMUSG00000028134_ENSMUST00000029780|mus_mus|motif|central (ssRNA)
RNA: GGGAGUUCUACAGUCCGACGAUCUGUGGUGCCACUAAGAGGUGUAUUUGCUGUCUGGACCGCUGUCACAGCUUGAAGAACGGCUUGCGCACGUUGGUUUAAUGUAUUAUCUGUCUUUAGUUCUUUGUGAUUGGAGUACUGGAUCAACAGAGGAUUGAGCAUCA
B2: 35990427_35990547_4149_CDS_ENSMUSG00000061607_ENSMUST00000082337|mouse|control|control (ssRNA)
RNA: GGGAGUUCUACAGUCCGACGAUCAGAGGUGGAAGGCUCAAAAUCAGGGGCCACUGGCCCAACUGAUUCACAAUCUUCAGUGGAGGGUUUAUAUGUCCUUCCCUGAGUGACCAGAGCUGUAGGCUUAGGGGCAGGCUGUUUUUUCAACAGAGGAUUGAGCAUCA
B3: chr17:17165348:17165349:-_ENSG00000141030_ENST00000268717|hu_hu|motif|central (ssRNA)
RNA: GGGAGUUCUACAGUCCGACGAUCAAUUUGAGAUGUAUAUUUUGGUAGCUGUUGUACUUUGCCAAGUAAUAUCAAAGACACGGAAAUAUACUUUUUAUAUGAUUCCAACAUGAUAUGACUGACCGCCAUGGCAGGAGUAGUUAUCAACAGAGGAUUGAGCAUCA
B4: 6378624_6387464_541_CDS_ENSG00000097021_ENST00000608083|human|control|control (ssRNA)
RNA: GGGAGUUCUACAGUCCGACGAUCGACAGUGUUCGGCUCUGGGUUGAGGACUGGCUGGACGAUGUCCCCGUUCCUCCACUUGGUCUCCAUGCGCUCCAGCUUCUGGGCUUCAUACCGCUUCCGGCCCUCCUCCUCCUGCUCCUGCAACAGAGGAUUGAGCAUCA
B5: chr7:151048522:151048523:+_ENSG00000013374_ENST00000566856|hu_mus|hu_hu_hu_mus_True|18_28 (ssRNA)
RNA: GGGAGUUCUACAGUCCGACGAUCCUGUUUCUUAUUUAUUACGAUCUUGAUGUAAUUUUCUUGAAAUCCGAAAGUUUCAGCUAUUUGACACCUCAGGUCUCUACCAGUGAUGUGCAAUCGGGUCUCCAACAAGCUUUUCUUAUCCAACAGAGGAUUGAGCAUCA
B6: chr17:6048899:6048900:-_ENSMUSG00000015659_ENSMUST00000097432|mus_mus|FALSE|FALSE (ssRNA)
RNA: GGGAGUUCUACAGUCCGACGAUCUUUGACUUCCAGUGAGGGAAAGAGAAGAUAUCGAAUAUUAACGGAGUAUUCAGCCAAACGUGACCCAUGGUGAGGGACACUGUAAAAAAUAAUUCCUCUGGUAUUGUUUAUAAGAGCAUUCAACAGAGGAUUGAGCAUCA
B7: chr16:45382771:45382772:-_ENSMUSG00000022661_ENSMUST00000163230|mus_mus|mus_mus_mus_hu_True|58_58 (ssRNA)
RNA: GGGAGUUCUACAGUCCGACGAUCCUGGGUCAUGUUAUAAGACAAAUGGACAGGGAGGGCAUGCUUCUCAAAAAAUGUGAACUACUCUCUAAGACUAACAAUAUUUAUCUAGCUAUAAAAAUAAGUUAAAUGAAUAAGUUAAGACAACAGAGGAUUGAGCAUCA
B8: chr18:25532265:25532266:-_ENSG00000170558_ENST00000399380|hu_mus|motif|central (ssRNA)
RNA: GGGAGUUCUACAGUCCGACGAUCGGAGUUGAGGGAGCUCAAGGAGCCAGCCGUGGAGCCGCUGCCCUCGUAGUCAAAGACGGAGAGGGAGUCAUACGGUGGCGCCGUGGGGUCGUUGUCAGCAGCUUUAAGGCCCUCAUUAAUCAACAGAGGAUUGAGCAUCA
B9: chr3:52726942:52726943:+_ENSG00000163938_ENST00000418458|hu_hu|motif|central (ssRNA)
RNA: GGGAGUUCUACAGUCCGACGAUCUCGCAGAGCAAGCGCAGAGGAGGAAUUAAGUGGAGAUACGAUGAAGCUCGGACGGUCGGUGAUUGUGAUCUGUUUGUCCAAGGGGACAACUUGCAUGCUCCUUGUAAGCCCCAUGGAUACCAACAGAGGAUUGAGCAUCA
B10: chr12:48362563:48362564:+_ENSG00000134291_ENST00000256686|hu_hu|hu_hu_hu_mus_False|38_58 (ssRNA)
RNA: GGGAGUUCUACAGUCCGACGAUCUCCGUCAAGCCCUUCGAUAGACCCUUGCGGGGGAAACUGUAAUCACUUUGUAUUUCUAAAAAAAAGAAACGCCAACACACUUUCAAAAAGCGGGGGUGGGGUGAGGCGGGAGGGGGAGGUCAACAGAGGAUUGAGCAUCA
B11: chr3:197553776:197553777:+_ENSG00000186001_ENST00000438796|hu_mus|FALSE|FALSE (ssRNA)
RNA: GGGAGUUCUACAGUCCGACGAUCGCACGAGAAGUCGAGCCGUAUCAAAGGCACCUCUGCCAGCUCUUCAGGCAAGCGUAGAAGAUGAUUUCUUCUUACAUUGAAGUCUCUCAAGGCUUCCAGAUUACCAAUUUGGGAAGGCACCAACAGAGGAUUGAGCAUCA
B12: chr14:89307221:89307222:+_ENSG00000165533_ENST00000346301|hu_mus|hu_hu_hu_mus_False|18_98 (ssRNA)
RNA: GGGAGUUCUACAGUCCGACGAUCUCCUGUUUGGUUAGUUCCAGGGAGCUUCAAAGAUGUGCCAGGGCGUGGGACCUGAGCAAUAGCAUUUUCAUCCAGGAUCAUUUCAGCAAUUCCUUCCUGAUCUACAUCAAUUUCAUCUAUCAACAGAGGAUUGAGCAUCA
B13: 38075952_38076072_829_CDS_ENSMUSG00000026083_ENSMUST00000027252|mouse|control|control (ssRNA)
RNA: GGGAGUUCUACAGUCCGACGAUCUUUUUUCUGUCCUUUUCUGGACUGCAAAAAUUCAUCGGACUCACCACCACUUUCACCAGAGGAGUUUACUCUCGAACGUUCUUUACUUCUUUUGCUAUUGUCUUCAUCCUCUUCUGACCCCAACAGAGGAUUGAGCAUCA
B14: chr7:7679991:7679992:-_ENSG00000106399_ENST00000396682|hu_hu|hu_hu_hu_mus_False|98_98 (ssRNA)
RNA: GGGAGUUCUACAGUCCGACGAUCUGGGAUGAAUCUUUUCCAGCCUCCCCACGAAGCACACGGGCCGGUCGAUAUACUGUGGUAACAUGCUGGCGUUGACGCGCGCUUUGGGGAGCUGCAUUAUGUCCUCCAUGAUUCUGCCGCCAACAGAGGAUUGAGCAUCA
B15: chr11:18536319:18536320:-_ENSG00000074319_ENST00000251968|perfect_dup|motif|central (ssRNA)
RNA: GGGAGUUCUACAGUCCGACGAUCAAGAUAUAUCUUCCCAUUUGCAUCAACAUGCUUUCCUGUUUUAAUAGUCAUUGAACGGGUAGGCUUAACAAAACAGAUAGGGGGAUUAUAUGGGUAUGUGUCCAGUAGCCAUAGGCAUAUCAACAGAGGAUUGAGCAUCA
B16: chr4:95690885:95690886:+_ENSMUSG00000028572_ENSMUST00000156910|mus_mus|mus_mus_mus_hu_False|28_108 (ssRNA)
RNA: GGGAGUUCUACAGUCCGACGAUCUUUAUUUUUAGAAAAAUACCAUGCUAAAAUAUUUUCAAAGGCUUAUUUUAUUUUACCAGAAGUCACAGGCAAGCAGACACUACAAACAUACAAGAAAAUGAAACUCAACAAUAUAACUGUCAACAGAGGAUUGAGCAUCA
B17: 26221340_26223884_1027_CDS_ENSG00000221914_ENST00000315985|human|control|control (ssRNA)
RNA: GGGAGUUCUACAGUCCGACGAUCUAUGCAGUCAUUUUCAUACAGUGAACAGAGUUUACUUCUGAGGUAUUCAUGCACCUGGUAUGUUUCCACAGGCCUGUUUUCCAUAUUUAAGUCCCAAAUUUUGACUGACAAAUAGUCUCUCAACAGAGGAUUGAGCAUCA
B18: chr4:17845017:17845018:+_ENSG00000109805_ENST00000514176|hu_mus|hu_hu_hu_mus_False|78_78 (ssRNA)
RNA: GGGAGUUCUACAGUCCGACGAUCGCUCUCUUAACUUGUAUCUUCAUUAAGGAACUCGCAAGGUUAAAGUUUACUUUUCUGUAGCGCAGCUGUUUUGGCUCGUCUGGGUAAUCUCAUCUUCAUUUCUGAUGGUGGUUCAUGAUCCAACAGAGGAUUGAGCAUCA
B19: chr4:148551591:148551592:-_ENSMUSG00000063077_ENSMUST00000060537|mus_hu|mus_mus_mus_hu_False|8_18 (ssRNA)
RNA: GGGAGUUCUACAGUCCGACGAUCACCUGACAAAAUUAAAUAUCCCUGUAAAUUAGACAAUAAGCAGCAGGCAACAAAGUCUUUGCUUUGGAAUAUGUGCCAGGAAAAGUCAUCUUGUAGACCCCAAACACCUUUCAGUUCACACAACAGAGGAUUGAGCAUCA
B20: chr7:56126341:56126342:+_ENSG00000146731_ENST00000540286|hu_mus|hu_hu_hu_mus_True|18_98 (ssRNA)
RNA: GGGAGUUCUACAGUCCGACGAUCCAUGUUUCUCCUCUUAGCUCUGCGCAGAGCUACGAUCCCUUCUUUCGCAAGGGCAUCUAAGGAAAAGGGGUCAAUCCCCUUUUGAUUAAUAACAACAAAUCCUUUAUCUGAGUCACCACACAACAGAGGAUUGAGCAUCA
B21: chr6:84311021:84311022:-_ENSG00000065609_ENST00000520302|hu_mus|FALSE|FALSE (ssRNA)
RNA: GGGAGUUCUACAGUCCGACGAUCCCCAGGAGAAGCUGCAAAGGCAUCUCCAAAGAGAUCCACUUCCGUAGUGACAGCCGUCACAGCUGUGGUGGUCGAGGCAGAGGCUGAAGCAGGCUCAGUGGUUGUAGUAGGAGGGGAAGGCAACAGAGGAUUGAGCAUCA
B22: chr12:39756943:39756944:-_ENSG00000139116_ENST00000544797|hu_mus|hu_hu_hu_mus_False|88_88 (ssRNA)
RNA: GGGAGUUCUACAGUCCGACGAUCGGUUUGGCUGUUACCCCCAAGGGAAUCCUGUAGGAGUCUUGUCAGCUUAGAGUCUCUGUAAGGGACAUGGGUGGCUCUCUUGCUCUUGUCCCCCAAGGCGCUGAUUACAUUCCCAAGAGCCAACAGAGGAUUGAGCAUCA

For 22 molecules, binding signal results are on record in publication PMC12136788.

Some of the results follow.

In this test the target is T1, UNK ZnF1-3. As to the kind of experiment: nsRBNS (natural sequence RNA bind-n-seq); RBNS binding buffer (assumed for nsRBNS): 25 mM Tris pH 7.5, 150 mM KCl, 3 mM MgCl2, 0.01% Triton X-100, 500 ug/ml BSA, 20 U/ml SUPERase-In, 4 C; UNK is unkempt and MSI1 is Musashi-1; names of the RNAs are library labels; protein concentration not given here; high values mean tight binding.
In the case of B1, the binding signal worked out at 0.763 enrichment R.

Take B2: the binding signal turned out to be 1.2 enrichment R.

Take B3: the binding signal amounted to 0.639 enrichment R.

On to B4, for which the binding signal stood at 0.611 enrichment R.

In the case of B5, the binding signal amounted to 0.502 enrichment R.

The molecule B6 had a binding signal of 1.41 enrichment R.

For the molecule B7, the binding signal is 1.02 enrichment R.

B8 gave a binding signal of 1.4 enrichment R.

Regarding B9, the binding signal was 0.89 enrichment R.

The molecule B10 returned a binding signal of 2.67 enrichment R.

As to B11, the binding signal turned out to be 0.85 enrichment R.

Molecule B12 returned a binding signal of 0.749 enrichment R.

Turning to B13, the binding signal turned out to be 0.438 enrichment R.

B14 registered a binding signal of 0.511 enrichment R.

Turning to B15, the binding signal stood at 0.798 enrichment R.

In turn, B16 gave a binding signal of 2.17 enrichment R.

As for B17, the binding signal is 0.717 enrichment R.

B18 registered a binding signal of 0.422 enrichment R.

As to B19, the binding signal was 1.61 enrichment R.

On to B20, for which the binding signal was 0.743 enrichment R.

As for B21, the binding signal was determined as 1.38 enrichment R.

Consider B22, for which the binding signal is 0.864 enrichment R.
